# In publication PMC12136788:
# The list shows a part of the results.
# T1: UNK ZnF1-6 (called full-length) (human, UniProt Q9C0B0 30-357)
# T1 sequence: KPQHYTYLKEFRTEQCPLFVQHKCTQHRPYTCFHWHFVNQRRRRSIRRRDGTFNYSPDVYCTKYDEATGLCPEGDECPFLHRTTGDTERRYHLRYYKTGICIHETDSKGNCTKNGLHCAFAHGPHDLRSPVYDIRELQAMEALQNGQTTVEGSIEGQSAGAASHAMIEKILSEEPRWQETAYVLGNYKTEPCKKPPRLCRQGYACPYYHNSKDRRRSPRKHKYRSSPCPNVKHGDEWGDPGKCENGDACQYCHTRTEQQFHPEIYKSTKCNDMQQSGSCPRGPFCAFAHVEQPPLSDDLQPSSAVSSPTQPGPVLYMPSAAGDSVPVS
# B1: ENSG00000136451:be:win_551|CDS|ENSG00000136451|bound_else_gene|NA|bound_elsewhere_windowed (ssRNA)
# RNA: GGGAGUUCUACAGUCCGACGAUCGAGAUGUGUACCAUCUCAAUCGACACAAGCUCUCCCAUUCAGAUGAGAAACCCUUUGAGUGUCCUAUUUGUAAUCAGCGCUUCAAGAGGAAGGACCGGAUGACUUACCAUGUGAGGUCUCCAACAGAGGAUUGAGCAUCA
# B2: chr1:32680599:32680700:+|3pUTR|ENSG00000162521|msi1|FALSE|unique (ssRNA)
# RNA: GGGAGUUCUACAGUCCGACGAUCAAGUGCUUAAAAUGGAAUAAAUUGCUUUUCUACAUAACCCCAUGCUGAUGGGUUUUAUUUAGUAUAAAACAUCCAUCAAACACCAGUCUCUGGCUUCUAGAAGAGUCCUUCAGAUGACAGCAACAGAGGAUUGAGCAUCA
# B3: chr9:95099063:95099164:-|3pUTR|ENSG00000158169|unk|total|mutant (ssRNA)
# RNA: GGGAGUUCUACAGUCCGACGAUCGAGCGCCCCUCCAACCAGGCUGUUAUUCCCCUGGACUCCGUGACAUCUGUGGAAUUUUUCCGCUCUUUAAAAUCUGUAAUUUGUUGUCUAUUUUUUCAUUCUAAAUAAAACUUCAGUUUGCAACAGAGGAUUGAGCAUCA
# B4: ENSG00000146842:stop:overlap|stop_codon|ENSG00000146842|stop_codon|NA|stop_codon (ssRNA)
# RNA: GGGAGUUCUACAGUCCGACGAUCUGCUUGGGAGAGUUAAUCUUGGUCUAUCUGGUGUGAAUAUAUUGUGGAUCUUUGGCGAGUAGCAAGUCAUAUAUUUAAUUCUGACAUUUAGACUAUUUCACUGAACCAGAAGUCGAAACUCAACAGAGGAUUGAGCAUCA
# B5: chr1:37590682:37590793:-|CDS|ENSG00000134697|unk|FALSE|unique (ssRNA)
# RNA: GGGAGUUCUACAGUCCGACGAUCAAGCAAAGCAAGUUACCAAUGUCUCUUCUCCAUGAUCGAAUCCGGCCUCAUGUAAGAUGUAGGAUAUCCCUGGUGAUGGAAUUUCCUGGGCAAACUCCAUGCAGAUCCCUCUCUAACAUACAACAGAGGAUUGAGCAUCA
# B6: chr1:117869688:117869789:-|3pUTR|ENSG00000196505|msi1|total|mutant (ssRNA)
# RNA: GGGAGUUCUACAGUCCGACGAUCACUCCAGCAGUGAGCAUUCCGAGAGUGUGUUGUCUUCCAGAGUCAUGAAUGAUUUUGUUCCGCUAUCAGGUCUACUACCUCUAAGGACAUUUCACCGCAGCAUCUCUUGAGUUGCCUGCACAACAGAGGAUUGAGCAUCA
# B7: chr1:43623430:43623515:+|3pUTR|ENSG00000142949|msi1_unk|FALSE|overlapping (ssRNA)
# RNA: GGGAGUUCUACAGUCCGACGAUCGGCGGGGAAGGGUGCAUAGCUGUUUUAGCUGAGGGACGUGGUGCCGACGUCCCCAAACCUAGCUAGGCUAAGUCAAGAUCAACAUUCCAGGGUUGGUAAUGUUGGAUGAUGAAACAUUCACAACAGAGGAUUGAGCAUCA
# B8: chr13:20822168:20822271:-|CDS|ENSG00000132953|unk|FALSE|unique (ssRNA)
# RNA: GGGAGUUCUACAGUCCGACGAUCUCGAAAAAUCAGAGAAGAUUCAGAUAUGGCACAAGAUUCUCUGCAGUGCCUUGCCCAGUUAGCUUCUCUUCAUGGACCCAUCUUCCCAGAUGAAGGAUCACAAGUUGAUUAUCUAGCACACAACAGAGGAUUGAGCAUCA
# B9: chr11:46542767:46542868:-|CDS|ENSG00000110497|msi1|total|mutant (ssRNA)
# RNA: GGGAGUUCUACAGUCCGACGAUCAACACGCUCCGCAACCUCAGUCUGGGUCCUACCCGCCGCUCUUUGGGAGGGCCUCUGUCCCGCCACCCUUCCCGGUAUCACCGAGAAACCGCUCCUGGGUUGACAGGAUCUGAGUGGACCCAACAGAGGAUUGAGCAUCA
# B10: ENSG00000070961:be:win_5951|3pUTR|ENSG00000070961|bound_else_gene|NA|bound_elsewhere_windowed (ssRNA)
# RNA: GGGAGUUCUACAGUCCGACGAUCACACCAACUCUAAUCCAUAAACGGGUCUUAUGACAUCUAUGAAGUAGUAGCAAGACAUGCUUAGUGUGUAUUUCUCUCUUUGAGACACUGUAAUUUCUACCAGAAAUUUCCAGAGCAUUACAACAGAGGAUUGAGCAUCA
# B11: chr4:55904547:55904648:+|3pUTR|ENSG00000090989|msi1|FALSE|bound_elsewhere (ssRNA)
# RNA: GGGAGUUCUACAGUCCGACGAUCAAAAUACCAAGCAACUGUUUUGAGAACCCAGACUUAAAAUUUUAUGUAUUAUUAAAUGUUAGAUAAAUGGGUAGUACCAUACUACAAAUAUUUAAAUGCAAAAUUACCAACCUAUAUAGCCAACAGAGGAUUGAGCAUCA
# B12: chr18:46811193:46811294:-|3pUTR|ENSG00000078043|unk|FALSE|unique (ssRNA)
# RNA: GGGAGUUCUACAGUCCGACGAUCUUUUUUUUCAUUUUUUUAAAAUGAUAUCUUACCUGAAACUACAAACGACAAAAGAGAAUUAGAAAUGUUUGAAUUAAAGUGAAGAAGGGUUGGGGGAGAUGGGCCUGAACCCACUUCCUGCAACAGAGGAUUGAGCAUCA
# B13: chr16:67098774:67098826:+|CDS_3pUTR|ENSG00000067955|msi1_unk|total|mutant (ssRNA)
# RNA: GGGAGUUCUACAGUCCGACGAUCAGACCCCCGUCCUGGUUCCAAUUCCGGUGGUGGUGAUGACCUCAAACUUCGUUAAUUAACCGCACAGCAGAUGUGUGCUGCCCAUCUUUACAUACACAUUGCUUCCCGUUGGCAGAAAUACAACAGAGGAUUGAGCAUCA
# B14: chr15:64675409:64675510:+|CDS|ENSG00000180357|msi1|total|mutant (ssRNA)
# RNA: GGGAGUUCUACAGUCCGACGAUCAACCAACAGCCCUGCAUACUCUGACAUCUCUGAUGCUGGGGAGGAUGGGGAGGGCAAGGCCGACAGUGUCAAAUCAAAGGACGCCGAACAGUUGGUUAAAGAAGGGGCUAAGAAAACUCUCAACAGAGGAUUGAGCAUCA
# B15: chr1:167421552:167421653:+|3pUTR|ENSG00000143190|unk|total|mutant (ssRNA)
# RNA: GGGAGUUCUACAGUCCGACGAUCUUUUCUUCUAACCUUAUUCAUUAAGCCGUUCCUUGUUUUGGCCCUUCUACUCUUGGCCUCCGCUAAAAGCAGUAAAUGUGAGUGAAUUUUAUGUUGAUUAUGUCACCUGGAUCUCCUUUCCAACAGAGGAUUGAGCAUCA
# B16: chr9:74692981:74693082:+|3pUTR|ENSG00000198963|unk|FALSE|unique (ssRNA)
# RNA: GGGAGUUCUACAGUCCGACGAUCUUUUAUAUUACUUUAGAAUGUAAUAGGUUUUUGUCCUUAUUUUAUGUCCUGUAAAUUAUUAGUUCAAUACUGUUAGCAUUCCCGGAUAAUGCACACAUGAUUUCUGAAUGUUUUCUGUAACAACAGAGGAUUGAGCAUCA
# B17: chr5:90513983:90514084:+|3pUTR|ENSG00000113356|unk|total|mutant (ssRNA)
# RNA: GGGAGUUCUACAGUCCGACGAUCAAAUACACUGAAGAUAAAGGUUAUUUCUUUUUUCCGCUUUGAAUUUGUCAUGACCAUUUCCGUCUUGCAGACCGCAGGGCAGCCCCUUGGGGCAAGGAUUUACUCUGGGAGGUACCGUUACAACAGAGGAUUGAGCAUCA
# B18: chr2:73958838:73958951:+|3pUTR|ENSG00000114956|unk|total|mutant (ssRNA)
# RNA: GGGAGUUCUACAGUCCGACGAUCCCAGCCCCUCUCAUCCCUGGAGCACUCUGCCGCUCAAGAGCUGGUUUGUUAAUUAUUGUCCGACUUUGCCAUUGUUUUCUUUUGUACCUGAAGCAUUUUGAAAAUAAAGUUUACUUAAGUCAACAGAGGAUUGAGCAUCA
# B19: chr22:21448335:21448436:+|3pUTR|ENSG00000169635|unk|total|mutant (ssRNA)
# RNA: GGGAGUUCUACAGUCCGACGAUCGCAGUCCUGGCCCCCGGCCACUGUCUCGGGGCCCACCUCUCGCCCCUCAUCUUGGUAAUCCGCCAGCCUCAGAUACUUCUGUGGGCCCUGAAGUGGGCUCUCAAGGUCAGACCAAGGUUGCAACAGAGGAUUGAGCAUCA
# B20: chr12:25205306:25205412:-|3pUTR|ENSG00000133703|unk|total|mutant (ssRNA)
# RNA: GGGAGUUCUACAGUCCGACGAUCGUCAUAUCAAACAUUAAAAAUGACCACUCUUUUAAUUGAAAUUAACUUUUAAAUGUUUACCGGAGUAUGUGCUGUGAAGUGAUCUAAAAUUUGUAAUAUUUUUGUCAUGAACUGUACUACCAACAGAGGAUUGAGCAUCA
# B21: chr8:65707876:65707977:+|CDS|ENSG00000066855|unk|total|mutant (ssRNA)
# RNA: GGGAGUUCUACAGUCCGACGAUCCCUGCUGCCCUCACCGCAGAGGCUCUGAAAAAGAAAUUUGCUUAUCGGUAUCGAAGUGACCGCCAAGAUGAAGUUGAAAAAGGAAUUCCAAAGUCUGAAUCAGAGGCCACCUCAGAGAGACAACAGAGGAUUGAGCAUCA
# B22: chr13:106491261:106491362:-|3pUTR|ENSG00000125266|msi1|total|mutant (ssRNA)
# RNA: GGGAGUUCUACAGUCCGACGAUCACAAUAAUGAGAGCAAAUGCAAAAAUAACCAAGUCCUCCGAAGGCAUCUCACGGAACCGCCGACCCGGAAGUACGAGCCCCACAGAGCAGGAAGCCGAUGUGACUGCAUCAUAUAUUUAACAACAGAGGAUUGAGCAUCA
# Molecular target: T1, UNK ZnF1-6 (called full-length)
# Experiment: nsRBNS (natural sequence RNA bind-n-seq); RBNS binding buffer (assumed for nsRBNS): 25 mM Tris pH 7.5, 150 mM KCl, 3 mM MgCl2, 0.01% Triton X-100, 500 ug/ml BSA, 20 U/ml SUPERase-In, 4 C; UNK is unkempt and MSI1 is Musashi-1; names of the RNAs are library labels; protein concentration not given here; high values mean tight binding
row,Binder,binding signal [enrichment R]
1,B1,0.38
2,B2,0.545
3,B3,0.753
4,B4,0.599
5,B5,0.537
6,B6,0.346
7,B7,0.948
8,B8,0.43
9,B9,0.737
10,B10,0.444
11,B11,1.75
12,B12,0.87
13,B13,0.68
14,B14,0.717
15,B15,0.442
16,B16,1.23
17,B17,0.502
18,B18,0.586
19,B19,0.697
20,B20,0.619
21,B21,0.497
22,B22,0.792
